ETS1 binding intensity data for 62 sequences are collected here from the supplement of paper PMC10681739.

In all, about 2,700 sequences were measured (“arbitrary fluorescence units”: median about 4,100, highest 2% from about 54,000 on). The list shows a part of the results.

For the assay, the target named is T1, ETS1 (UniProt P14921).
T1 sequence: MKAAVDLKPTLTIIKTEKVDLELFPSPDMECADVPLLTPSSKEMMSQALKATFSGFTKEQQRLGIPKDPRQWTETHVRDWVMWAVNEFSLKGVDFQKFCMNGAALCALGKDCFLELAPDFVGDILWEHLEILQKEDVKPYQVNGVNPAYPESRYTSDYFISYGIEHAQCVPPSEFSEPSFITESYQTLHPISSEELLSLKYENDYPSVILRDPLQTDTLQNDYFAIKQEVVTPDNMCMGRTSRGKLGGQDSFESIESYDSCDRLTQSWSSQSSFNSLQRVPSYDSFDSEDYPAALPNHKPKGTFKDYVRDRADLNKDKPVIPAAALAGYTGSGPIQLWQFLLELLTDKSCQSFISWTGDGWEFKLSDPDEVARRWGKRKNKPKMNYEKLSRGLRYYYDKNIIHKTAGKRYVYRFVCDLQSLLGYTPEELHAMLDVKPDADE
The assay can be described thus: ETS1 binding intensity (PBM fluorescence) (arbitrary fluorescence units); higher = stronger binding. Particulars: ETS1 concentration 10 nM. On the procedure: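 gcPBM on wild-type 36-bp genomic probes with two neighbouring ETS1 sites (4-24 bp apart). Recombinant human ETS1 (10 nM) was detected with anti-ETS1 antibody fluorescence. Values are medians over 3 replicate spots. The probes sit in constant array flanks that are not printed.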
As for CTCAGGAAAAAATGTTCCTAGGCAGGCAGGATGTGG, the ETS1 binding intensity was 231.
The result for TGAGGCAGGAAAATCACTTGAAACCGGAAGGCTGAG reads 562; that for AAAAAACCGGAAATGCACCCACAGAGGAAGCAACCT, 37000; that for CAACAGGATACGGTGAGTCATTTCAACTTCCTGCTA, 3410.
The result for GTGAGAATGTTTCCTAACAGGAGGAAGTCTGCAACG reads 240.
To GCATGCTCAGGAAATGTCAGTGCTTCCCGTTCACCC belongs 986; to GGAGGAGGCGGAGGAAACCCGGAAAAGGGGCCGCGC, 382.
As for CGGACCGGAAGTTGGGGTGACGCAATTTCCGGCGCG, the ETS1 binding intensity is 54200.
To TTCAAACAGGATGCCCCTGGAGCTCGGATGTTAGGG belongs 1770.
CGCGAGGGTGAATTTCCGTTTCCGGCGGTGTCCAAG registered an ETS1 binding intensity of 16500.
For TGAAAGCATCCTGACTCATCTAGACAGGATGCTGTG, the ETS1 binding intensity came to 2530.
The result for GCAGAAGCCGGAACTGAGATACAGGAAGTTGAGTCT reads 8870; that for TGCTAAACTTCCCTGGGCCCCATCAGGAAATGTGAA, 185.
To CTGGCCACATCCCGCCACGCCCCGAGGAAATGCAAA belongs 1460.
The result for CGGGAGAGACCATTTCCTCCTTCCTGGAGGGATGAG reads 5920; that for AAGTCAGGAAACAGTAGGTGCTGGAGAGGATGTGGA, 305; that for AAAAAGGAAACTGTTCTCATGAAAGCAGGATGTTGG, 464.
TGACTTCAACAGGAAGCCACAGGATGTTCACCTGCA returned an ETS1 binding intensity of 3210.
Sequence TGGGCAGGAAAGGGCCTGGCTCACACTTCCCCTCGA had an ETS1 binding intensity of 388.
The sequence GCCAACTTCCCGGCCTGCAGGGTGGCAGGAAGCCTG came in with an ETS1 binding intensity of 4450.
To TAAGAGCGGAAGGTAGTGGACTTAAAGGAAATGATG belongs 783.
To CTGTCAAGCAGGATGTCAGCAGTTTCCTTTGCATGA belongs 4720; to TTTACATCCTTCATTTCTTCAGCAAACATCCGGTCA, 17200; to CCGGCTGCCGAGCTTCCTCTTCCTGGCAAGCAGGCG, 2730.
The result for GCTCAGGAAGTGTGCATTAGTCACACATTTCCCACA reads 1830; that for TAGGCAGGAAATGCGTACCCGGCCCGAGGAAGCAGG, 6200; that for CTGATTTCCTTTTGCATCTCAAACCCGGGAAGTTTG, 7740.
On to AACAGTGCGTTTCCTTGAAAGCAGGAAATATTCTTA, for which the ETS1 binding intensity stood at 1310.
Turning to TCAGTGTTTCATTTCCTGCCGGATCTGATTCAGGTC, the ETS1 binding intensity came to 20700.
The result for CCAGACGAAGGAAGTGACATCACCTTCCTGGGTCTT reads 827; that for GCATCCATCCGGCGCTGGGGAGCAGAGGAAGTGGTC, 14900; that for ACAGTAGCAGCTTCCTCAAGCAGGAAGTATGAAAAG, 3420.
The result for TGACCTCACTTCCTGTCGCCGAGCGGAAGTGACGAA reads 52200; that for CACCCACATCCTCCCTGAGTCACTACATCCTTGAAA, 9640; that for GCTGCAACTTCCGGTGCGCTAGCCGGAAACGCGGGT, 78200.
The result for GGGGCCGGATCTGCTGCCTGACAGGGCTTCCTGGCC reads 687; that for GCGGCTGAGGAAATTACTGACACCGGAAGTCACGTG, 7110.
On to TCCCACACGCCCCGGAACAGGAAATATCCCGGGCCC, for which the ETS1 binding intensity amounted to 1380.
The sequence ACAGCCCTCCCGGAAGTCGGCGGAAAAGGGGCCTGG showed an ETS1 binding intensity of 14500.
The result for ACCTTGAGCATGGCTTCCGGGAAGTTGCGGTTGAAG reads 5120.
To ACAGTGCGGAAGACAAGAGGCCTTAGGAAGTGGGAA belongs 191; to CCTCACGGCGGAATCTCAAGCACTTCCGCTTGGCAC, 8770; to CAGCTAGGCTTCCTTCTCCTCCCTTCCTGTGCCTCC, 1100.
To CTCCTAACCAGGATGTTCACTGAGGATGTTAACACA belongs 1460; to ACTGGCAGGAAGGGCAGTTTTGGCAGGAAAAGCCAT, 991.
For the sequence GCAACACCGGAAAAGGTCCGGCTGCTTCCGGTAAAA, the ETS1 binding intensity amounted to 16200.
TGTAAGGAAATGGTTAGTCTATTTTTAGGATGTGGC gave an ETS1 binding intensity of 195.
The result for TTTGAGCAGGAAAACTACGCGACAGGAAGTGTATAC reads 1750.
In turn, GGGGCCGGAAGCTTTCGGATAACAACTTCCGCTCGG yielded an ETS1 binding intensity of 20100.
To GAGCTTGCTTCCTGTTAACCCAGGCATCCTGTGCAG belongs 29500.
The result for GTGACAGGATGTTATAAGGCCCCTCTTTCCGGCTCT reads 7350; that for CGCAAGTGCGGAACTGCGTTTGTTTCCGGCGTGGGT, 2520; that for TTCACTTCCCTCCTCCAAATCTCCCACTTCCTCTTG, 5960.
On to GGTCAGGAAGTAGGAGTCTGGCCTAACTTCCTTTCT, for which the ETS1 binding intensity came to 4120.
The result for TGTACTTCCGGAGCTAAGTTGCCTGAGAGGAAATGG reads 49000.
Regarding GCCGCGGCGGAAGAGGCTCGGGGAGGAAGTTATTTG, the ETS1 binding intensity was determined as 1880.
To GGGAGGACTTCCTGGCTGAATTTGGGAAGGAAACAA belongs 15200; to CCCGTTTCCGTGTAATAGTCTTTCACAGGAAGTCAG, 8060.
The result for AGAGCAGCCCCGGAACAGGAGCTTCCCGGCACCGGC reads 171; that for GTGAGTGCGTTTCCGCCGGTTTTTCCTGCCTGAGGA, 15000.
Consider GACAGGAAGGCTACAGGCTGCCTGTGGCTTCCGTGT, for which the ETS1 binding intensity is 386.
Sequence AATTGTTTCCTTTGAAAAGCCATCACTTCCTCTCCT gave an ETS1 binding intensity of 4750.
